This assay concerns anti-pSer133 antibody labeled with CS124-DTPA-Phe-NCS*Tb.

We go through one substance from patent publication US20050064485A1, “Multiplex binding and activity assays” (priority 2003, published 2005).

Consider “LRREILSRRP(pS)YRK-Fluorescein [SEQ ID NO:7]”, for which the “change in TR-RET value between free and bound forms” value is given as 32 fold.
